Test results published in the supplement of paper PMC8728848.
This is one part of the list.

Tests used:
Test in all cases: glycan array binding signal (z-score within array); higher = stronger binding
Conditions in all cases: glycan notation: IUPAC condensed, linker removed
[1] = target: Gal(b1-3)GlcNAc(a1-6)Gal(b1-4)GlcNAc
In short: (§1)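 Glycan array data were curated from 3228 arrays in the Consortium for Functional Glycomics database and kept only where the protein sequence was available. Glycan names were converted to IUPAC-condensed notation, and columns mapping to the same glycan were averaged. The binding signal is a within-array Z-score, averaged across arrays of the same protein sequence at different concentrations or buffers and across linkers. Negative Z-scores can be read as non-binding.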

[2] = target: Gal(b1-3)GlcNAc(b1-2)Man(a1-3)[Gal(b1-3)GlcNAc(b1-2)Man(a1-6)]Man(b1-4)GlcNAc(b1-4)GlcNAc
In short: as §1

[3] = target: Gal(b1-3)GlcNAc(b1-2)Man(a1-3)[Gal(b1-3)GlcNAc(b1-2)Man(a1-6)]Man(b1-4)GlcNAc(b1-4)[Fuc(a1-6)]GlcNAc
In short: as §1

[4] = target: Gal(b1-3)GlcNAc(b1-2)[Gal(b1-3)GlcNAc(b1-6)]Man(a1-6)[Gal(b1-3)GlcNAc(b1-2)Man(a1-3)]Man(b1-4)GlcNAc(b1-4)GlcNAc
In short: as §1

[5] = target: Gal(b1-3)GlcNAc(b1-3)Gal(b1-3)GlcNAc
In short: as §1

[6] = target: Gal(b1-3)GlcNAc(b1-3)Gal(b1-4)Glc
In short: as §1

[7] = target: Gal(b1-3)GlcNAc(b1-3)Gal(b1-4)GlcNAc
In short: as §1

[8] = target: Gal(b1-3)GlcNAc(b1-3)Gal(b1-4)GlcNAc(b1-6)[Gal(b1-3)GlcNAc(b1-3)]Gal(b1-4)Glc
In short: as §1

[9] = target: Gal(b1-3)GlcNAc(b1-3)Gal(b1-4)[Fuc(a1-3)]GlcNAc(b1-6)[Gal(b1-3)GlcNAc(b1-3)]Gal(b1-4)Glc
In short: as §1

[10] = target: Gal(b1-3)GlcNAc(b1-3)GalNAc
In short: as §1

[11] = target: Gal(b1-3)GlcNAc(b1-6)Gal(b1-4)GlcNAc
In short: as §1

[12] = target: Gal(b1-3)[Fuc(a1-4)]GlcNAc
In short: as §1

[13] = target: Gal(b1-3)[Fuc(a1-4)]GlcNAc(b1-2)Man(a1-3)[Gal(b1-3)[Fuc(a1-4)]GlcNAc(b1-2)Man(a1-6)]Man(b1-4)GlcNAc(b1-4)GlcNAc
In short: as §1

[14] = target: Gal(b1-3)[Fuc(a1-4)]GlcNAc(b1-2)Man(a1-3)[Gal(b1-3)[Fuc(a1-4)]GlcNAc(b1-2)Man(a1-6)]Man(b1-4)GlcNAc(b1-4)[Fuc(a1-6)]GlcNAc
In short: as §1

[15] = target: Gal(b1-3)[Fuc(a1-4)]GlcNAc(b1-3)Gal(b1-3)[Fuc(a1-4)]GlcNAc
In short: as §1

[16] = target: Gal(b1-3)[Fuc(a1-4)]GlcNAc(b1-3)Gal(b1-4)GlcNAc
In short: as §1

[17] = target: Gal(b1-3)[Fuc(a1-4)]GlcNAc(b1-3)Gal(b1-4)[Fuc(a1-3)]GlcNAc
In short: as §1

[18] = target: Gal(b1-3)[GlcNAc(b1-6)]GalNAc
In short: as §1

[19] = target: Gal(b1-3)[Neu5Ac(a2-6)]GalNAc
In short: as §1

[20] = target: Gal(b1-3)[Neu5Ac(a2-6)]GlcNAc(b1-6)Gal(b1-4)Glc
In short: as §1

[21] = target: Gal(b1-3)[Neu5Ac(b2-6)]GalNAc
In short: as §1

Gal(b1-4)Gal = target: Gal(b1-4)Gal
In short: as §1

[22] = target: Gal(b1-4)GalNAc(a1-3)[Fuc(a1-2)]Gal(b1-4)GlcNAc
In short: as §1

[23] = target: Gal(b1-4)GalNAc(b1-3)[Fuc(a1-2)]Gal(b1-4)GlcNAc
In short: as §1

Gal(b1-4)Glc = target: Gal(b1-4)Glc
In short: as §1

Gal(b1-4)Glc6S = target: Gal(b1-4)Glc6S
In short: as §1

Gal(b1-4)GlcNAc = target: Gal(b1-4)GlcNAc
In short: as §1

[24] = target: Gal(b1-4)GlcNAc(a1-6)Gal(b1-4)GlcNAc
In short: as §1

Gal(b1-4)GlcNAc(b1-2)Man = target: Gal(b1-4)GlcNAc(b1-2)Man
In short: as §1

[25] = target: Gal(b1-4)GlcNAc(b1-2)Man(a1-3)Man(b1-4)GlcNAc(b1-4)GlcNAc
In short: as §1

[26] = target: Gal(b1-4)GlcNAc(b1-2)Man(a1-3)[Gal(b1-4)GlcNAc(b1-2)Man(a1-6)]Man(b1-4)GlcNAc(b1-4)GlcNAc
In short: as §1

[27] = target: Gal(b1-4)GlcNAc(b1-2)Man(a1-3)[Gal(b1-4)GlcNAc(b1-2)Man(a1-6)]Man(b1-4)GlcNAc(b1-4)[Fuc(a1-6)]GlcNAc
In short: as §1

[28] = target: Gal(b1-4)GlcNAc(b1-2)Man(a1-3)[Gal(b1-4)GlcNAc(b1-2)][GlcNAc(b1-4)]Man(b1-4)GlcNAc(b1-4)GlcNAc
In short: as §1

[29] = target: Gal(b1-4)GlcNAc(b1-2)Man(a1-3)[GlcNAc(b1-2)Man(a1-6)]Man(b1-4)GlcNAc(b1-4)GlcNAc
In short: as §1

[30] = target: Gal(b1-4)GlcNAc(b1-2)Man(a1-3)[Man(a1-6)]Man(b1-4)GlcNAc(b1-4)GlcNAc
In short: as §1

[31] = target: Gal(b1-4)GlcNAc(b1-2)Man(a1-6)Man(b1-4)GlcNAc(b1-4)GlcNAc
In short: as §1

[32] = target: Gal(b1-4)GlcNAc(b1-2)Man(a1-6)[GlcNAc(b1-2)Man(a1-3)]Man(b1-4)GlcNAc(b1-4)GlcNAc
In short: as §1

B1: SCA (Schizophyllum commune) (protein)
chain: MGIDQGVYLITNAGSGTAATLKDGYVKGWERIKGKEQLNQLWFVKSVKTSASDPGYAAFNLATNKVLDLEKGLADRGTPILGWDYHEGDNQHWVIKKQADGKYYKIQSVKTQTFVDLNNGGKDNGTKIQGWVGSWDETNSHQRWVFNQFSATGSRIKSILDTHPKIHGKVIVEWPDRIYFTPDQYIFEAIWAKTGLADIKPRDPLFQSEAYEKVFKGWVVSRAQEIIKVDGFDILVGSLSLVEKSTQKIKVLDVSVRTSDDKSPDLSQIVFFDPESGRTLVDIPEGYEVNSVII
glycan array binding signal (z-score) [1]: -0.134
glycan array binding signal (z-score) [2]: -0.158
glycan array binding signal (z-score) [3]: -0.159
glycan array binding signal (z-score) [4]: 1.05
glycan array binding signal (z-score) [5]: -0.161
glycan array binding signal (z-score) [6]: -0.163
glycan array binding signal (z-score) [7]: -0.158
glycan array binding signal (z-score) [8]: 0.045
glycan array binding signal (z-score) [9]: -0.147
glycan array binding signal (z-score) [10]: -0.161
glycan array binding signal (z-score) [11]: 0.044
glycan array binding signal (z-score) [12]: -0.161
glycan array binding signal (z-score) [13]: -0.162
glycan array binding signal (z-score) [14]: -0.054
glycan array binding signal (z-score) [15]: -0.159
glycan array binding signal (z-score) [16]: -0.16
glycan array binding signal (z-score) [17]: -0.16
glycan array binding signal (z-score) [18]: -0.16
glycan array binding signal (z-score) [19]: -0.152
glycan array binding signal (z-score) [20]: -0.133
glycan array binding signal (z-score) [21]: -0.161
glycan array binding signal (z-score) (Gal(b1-4)Gal): -0.165
glycan array binding signal (z-score) [22]: -0.157
glycan array binding signal (z-score) [23]: -0.163
glycan array binding signal (z-score) (Gal(b1-4)Glc): -0.161
glycan array binding signal (z-score) (Gal(b1-4)Glc6S): -0.156
glycan array binding signal (z-score) (Gal(b1-4)GlcNAc): -0.159
glycan array binding signal (z-score) [24]: -0.05
glycan array binding signal (z-score) (Gal(b1-4)GlcNAc(b1-2)Man): -0.162
glycan array binding signal (z-score) [25]: -0.157
glycan array binding signal (z-score) [26]: -0.13
glycan array binding signal (z-score) [27]: -0.162
glycan array binding signal (z-score) [28]: -0.151
glycan array binding signal (z-score) [29]: -0.158
glycan array binding signal (z-score) [30]: -0.158
glycan array binding signal (z-score) [31]: -0.159
glycan array binding signal (z-score) [32]: -0.142
